Assay results taken from the supplement of paper PMC4604168 (melanoma cell lines).
Some of the results follow. Repeats are few or missing, and single values can be far off.

system: A101D; assay: cell count relative to DMSO control; melanoma cells; higher = more viable cells; settings: library dose: standard library concentration; 72 h
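Note: cells treated in 1,536-well plates, then fixed and DAPI-stained, with nuclei counted from automated high-throughput microscope images.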

Question: `Cn1cc(C2=C(c3cn(C4CCN(Cc5ccccn5)CC4)c4ccccc34)C(=O)NC2=O)c2ccccc21` [Enzastaurin] + COc1cc2c(Oc3ccc4[nH]c(C)cc4c3F)ncnc2cc1OCCCN1CCCC1 [cediranib] (first compound 4 µM, partner dose 2 µM) was tested. Which cell count did it give?
Answer: 42.5%

Question: For `N.N.[Cl][Pt][Cl]` [cisplatin] + Nc1ncn([C@H]2C[C@H](O)[C@@H](CO)O2)c(=O)n1 [decitabine] (first compound 8 µM, partner dose 0.5 µM), which cell count is on record?
Answer: 66%

Question: For `C[C@]12O[C@H](C[C@]1(O)CO)n1c3ccccc3c3c4c(c5c6ccccc6n2c5c31)CNC4=O` [Lestaurtinib] + Nc1ncn([C@H]2C[C@H](O)[C@@H](CO)O2)c(=O)n1 [decitabine] (first compound 0.02 µM, partner dose 0.5 µM), which cell count is on record?
Answer: 69.5%

Question: For `N.N.[Cl][Pt][Cl]` [cisplatin] + CCCS(=O)(=O)Nc1ccc(F)c(C(=O)c2c[nH]c3ncc(Cl)cc23)c1F [PLX4720] (first compound 8 µM, partner dose 0.4 µM), which cell count is on record?
Answer: 95.8%

Question: How did the cell count turn out when `C[C@]12O[C@H](C[C@]1(O)CO)n1c3ccccc3c3c4c(c5c6ccccc6n2c5c31)CNC4=O` [Lestaurtinib] + Cn1nnc2c(C(N)=O)ncn2c1=O [temozolomide] (first compound 0.02 µM, partner dose 10 µM) was run?
Answer: 72.9%

Question: Which cell count does the source give for `N.N.[Cl][Pt][Cl]` [cisplatin] + CNC(=O)c1cc(Oc2ccc(NC(=O)Nc3ccc(Cl)c(C(F)(F)F)c3)cc2)ccn1 [sorafenib] (first compound 8 µM, partner dose 2 µM) here?
Answer: 78.3%
